# Data taken from article PMC9911399, “Two distinct binding modes provide the RNA-binding protein RbFox with extraordinary sequence specificity”.
# Numbering of substitutions follows the chain as printed; changes in the protein carry UniProt numbers. The list shows a part of the results.
# T1: RBFOX1 RRM (Homo sapiens, UniProt Q9NWB1 109-208)
# T1 sequence: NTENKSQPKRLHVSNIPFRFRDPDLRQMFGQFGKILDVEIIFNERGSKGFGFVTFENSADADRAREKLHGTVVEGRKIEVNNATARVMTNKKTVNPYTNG
# B1: GUGGGCC (DNA:RNA)
# RNA: GGGAGACCGGAAUUCAGAUUGUCCGUGGGCCUUAAAUCCCGUCGUAGCCACCA
# DNA 1: CAATCTGAATTCCGGTCTCCC
# DNA 2: TGGTGGCTACGACGGGATT
# B2: CCGGCCG (DNA:RNA)
# RNA: B1 RNA with G25C, U26C, G29C, C31G
# DNA 1: CAATCTGAATTCCGGTCTCCC
# DNA 2: TGGTGGCTACGACGGGATT
# B3: GCUUAUC (DNA:RNA)
# RNA: B1 RNA with U26C, G27U, G28U, G29A, C30U
# DNA 1: CAATCTGAATTCCGGTCTCCC
# DNA 2: TGGTGGCTACGACGGGATT
# B4: AUCUCUU (DNA:RNA)
# RNA: B1 RNA with G25A, G27C, G28U, G29C, C30U, C31U
# DNA 1: CAATCTGAATTCCGGTCTCCC
# DNA 2: TGGTGGCTACGACGGGATT
# B5: UUCCCAA (DNA:RNA)
# RNA: B1 RNA with G25U, G27C, G28C, G29C, C30A, C31A
# DNA 1: CAATCTGAATTCCGGTCTCCC
# DNA 2: TGGTGGCTACGACGGGATT
# B6: UUCUUGA (DNA:RNA)
# RNA: B1 RNA with G25U, G27C, G28U, G29U, C30G, C31A
# DNA 1: CAATCTGAATTCCGGTCTCCC
# DNA 2: TGGTGGCTACGACGGGATT
# B7: CCCGGGG (DNA:RNA)
# RNA: B1 RNA with G25C, U26C, G27C, C30G, C31G
# DNA 1: CAATCTGAATTCCGGTCTCCC
# DNA 2: TGGTGGCTACGACGGGATT
# B8: AGUCCCA (DNA:RNA)
# RNA: B1 RNA with G25A, U26G, G27U, G28C, G29C, C31A
# DNA 1: CAATCTGAATTCCGGTCTCCC
# DNA 2: TGGTGGCTACGACGGGATT
# B9: UGGGUAG (DNA:RNA)
# RNA: B1 RNA with G25U, U26G, G29U, C30A, C31G
# DNA 1: CAATCTGAATTCCGGTCTCCC
# DNA 2: TGGTGGCTACGACGGGATT
# B10: GACCCCC (DNA:RNA)
# RNA: B1 RNA with U26A, G27C, G28C, G29C
# DNA 1: CAATCTGAATTCCGGTCTCCC
# DNA 2: TGGTGGCTACGACGGGATT
# B11: UGGUUCG (DNA:RNA)
# RNA: B1 RNA with G25U, U26G, G28U, G29U, C31G
# DNA 1: CAATCTGAATTCCGGTCTCCC
# DNA 2: TGGTGGCTACGACGGGATT
# B12: UGUACAC (DNA:RNA)
# RNA: B1 RNA with G25U, U26G, G27U, G28A, G29C, C30A
# DNA 1: CAATCTGAATTCCGGTCTCCC
# DNA 2: TGGTGGCTACGACGGGATT
# B13: UUAUGGA (DNA:RNA)
# RNA: B1 RNA with G25U, G27A, G28U, C30G, C31A
# DNA 1: CAATCTGAATTCCGGTCTCCC
# DNA 2: TGGTGGCTACGACGGGATT
# B14: AAAGCUU (DNA:RNA)
# RNA: B1 RNA with G25A, U26A, G27A, G29C, C30U, C31U
# DNA 1: CAATCTGAATTCCGGTCTCCC
# DNA 2: TGGTGGCTACGACGGGATT
# B15: CCGAUGC (DNA:RNA)
# RNA: B1 RNA with G25C, U26C, G28A, G29U, C30G
# DNA 1: CAATCTGAATTCCGGTCTCCC
# DNA 2: TGGTGGCTACGACGGGATT
# B16: ACGGGAC (DNA:RNA)
# RNA: B1 RNA with G25A, U26C, C30A
# DNA 1: CAATCTGAATTCCGGTCTCCC
# DNA 2: TGGTGGCTACGACGGGATT
# B17: GCAGGUA (DNA:RNA)
# RNA: B1 RNA with U26C, G27A, C30U, C31A
# DNA 1: CAATCTGAATTCCGGTCTCCC
# DNA 2: TGGTGGCTACGACGGGATT
# B18: CCCGCGA (DNA:RNA)
# RNA: B1 RNA with G25C, U26C, G27C, G29C, C30G, C31A
# DNA 1: CAATCTGAATTCCGGTCTCCC
# DNA 2: TGGTGGCTACGACGGGATT
# B19: UAGGCAA (DNA:RNA)
# RNA: B1 RNA with G25U, U26A, G29C, C30A, C31A
# DNA 1: CAATCTGAATTCCGGTCTCCC
# DNA 2: TGGTGGCTACGACGGGATT
# B20: UCUAAGG (DNA:RNA)
# RNA: GGGAGACCGGAAUUCAGAUUGUCCUCUAAGGUUAAAUCCCGUCGUAGCCACCA
# DNA 1: CAATCTGAATTCCGGTCTCCC
# DNA 2: TGGTGGCTACGACGGGATT
# B21: CCGAGGG (DNA:RNA)
# RNA: B20 RNA with U25C, U27G, A29G
# DNA 1: CAATCTGAATTCCGGTCTCCC
# DNA 2: TGGTGGCTACGACGGGATT
# B22: UAGGAAG (DNA:RNA)
# RNA: B20 RNA with C26A, U27G, A28G, G30A
# DNA 1: CAATCTGAATTCCGGTCTCCC
# DNA 2: TGGTGGCTACGACGGGATT
# B23: UUUCAAG (DNA:RNA)
# RNA: B20 RNA with C26U, A28C, G30A
# DNA 1: CAATCTGAATTCCGGTCTCCC
# DNA 2: TGGTGGCTACGACGGGATT
# B24: UGCCCGU (DNA:RNA)
# RNA: B20 RNA with C26G, U27C, A28C, A29C, G31U
# DNA 1: CAATCTGAATTCCGGTCTCCC
# DNA 2: TGGTGGCTACGACGGGATT
# B25: AGUCUAU (DNA:RNA)
# RNA: B20 RNA with U25A, C26G, A28C, A29U, G30A, G31U
# DNA 1: CAATCTGAATTCCGGTCTCCC
# DNA 2: TGGTGGCTACGACGGGATT
# B26: AAGAAAG (DNA:RNA)
# RNA: B20 RNA with U25A, C26A, U27G, G30A
# DNA 1: CAATCTGAATTCCGGTCTCCC
# DNA 2: TGGTGGCTACGACGGGATT
# B27: ACCUAGG (DNA:RNA)
# RNA: B20 RNA with U25A, U27C, A28U
# DNA 1: CAATCTGAATTCCGGTCTCCC
# DNA 2: TGGTGGCTACGACGGGATT
# B28: UGGGGUA (DNA:RNA)
# RNA: B1 RNA with G25U, U26G, C30U, C31A
# DNA 1: CAATCTGAATTCCGGTCTCCC
# DNA 2: TGGTGGCTACGACGGGATT
# B29: AGACUCU (DNA:RNA)
# RNA: B1 RNA with G25A, U26G, G27A, G28C, G29U, C31U
# DNA 1: CAATCTGAATTCCGGTCTCCC
# DNA 2: TGGTGGCTACGACGGGATT
# B30: CAUUUCA (DNA:RNA)
# RNA: B1 RNA with G25C, U26A, G27U, G28U, G29U, C31A
# DNA 1: CAATCTGAATTCCGGTCTCCC
# DNA 2: TGGTGGCTACGACGGGATT
# B31: GUCCUUC (DNA:RNA)
# RNA: B1 RNA with G27C, G28C, G29U, C30U
# DNA 1: CAATCTGAATTCCGGTCTCCC
# DNA 2: TGGTGGCTACGACGGGATT
# Target: T1, RBFOX1 RRM
# Experiment: EMSA; HiTS-Eq, 1 nM pool, 10 min; buffer printed only for the single-RNA assays: 10 mM Tris pH 7.5, 150 mM NaCl, 3.4 mM EDTA, 0.001% NP-40, 30 C
# Settings: tags: His6 N-terminal (pET28a); label: 5' 32P
# How it was run: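 Purified RbFox RRM, wild type or mutant, was incubated for 10 min in 50 µL with 1 nM of a 5′-radiolabelled RNA pool carrying 7 randomized nucleotides, whose flanks were annealed to DNA oligonucleotides, over a series of increasing protein concentrations. Unbound RNA was resolved on 8% native PAGE, cut out, reverse-transcribed, barcoded by PCR and sequenced on an Illumina HiSeq 2500. Relative association constants were derived from changes in read counts for each RNA species versus the control reaction and normalised to the cognate motif.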
row,Binder,binding signal
1,B1,0.0185 KA relative to UGCAUGU
2,B2,0.0157 KA relative to UGCAUGU
3,B3,0.00767 KA relative to UGCAUGU
4,B4,0.00168 KA relative to UGCAUGU
5,B5,0.00547 KA relative to UGCAUGU
6,B6,0.0137 KA relative to UGCAUGU
7,B7,0.00905 KA relative to UGCAUGU
8,B8,0.00141 KA relative to UGCAUGU
9,B9,0.0258 KA relative to UGCAUGU
10,B10,0.00672 KA relative to UGCAUGU
11,B11,0.0375 KA relative to UGCAUGU
12,B12,0.00975 KA relative to UGCAUGU
13,B13,0.00363 KA relative to UGCAUGU
14,B14,0.00553 KA relative to UGCAUGU
15,B15,0.0124 KA relative to UGCAUGU
16,B16,0.0106 KA relative to UGCAUGU

row,Binder,binding signal
1,B17,0.011 KA relative to UGCAUGU
2,B18,0.00603 KA relative to UGCAUGU
3,B19,0.00743 KA relative to UGCAUGU
4,B20,0.00615 KA relative to UGCAUGU
5,B21,0.00813 KA relative to UGCAUGU
6,B22,0.0131 KA relative to UGCAUGU
7,B23,0.0112 KA relative to UGCAUGU
8,B24,0.0214 KA relative to UGCAUGU
9,B25,0.00336 KA relative to UGCAUGU
10,B26,0.00632 KA relative to UGCAUGU
11,B27,0.00669 KA relative to UGCAUGU
12,B28,0.0298 KA relative to UGCAUGU
13,B29,0.00721 KA relative to UGCAUGU
14,B30,0.00377 KA relative to UGCAUGU
15,B31,0.0133 KA relative to UGCAUGU
